# Results reported in the supplement of paper PMC11417369.
# Some of the results follow.
# Test system: PF3D7_0420300 AP2 domain 1 (GST-tagged)
# Assay: gcPBM binding intensity (ln(normalized median fluorescence intensity)); higher = stronger DNA binding
# In short: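 Plasmodium falciparum DNA-binding domains carrying a GST tag were expressed in E. coli and applied for 1 h, at about 25 μg on average, to an Agilent 4 × 180k array. The array held primer-extended double-stranded 36-bp intergenic genomic probes together with negative controls, and binding took place in 1× PBS with 1% milk, 0.2 mg/ml BSA, 0.5% salmon testes DNA and 0.03% Triton X-100. An Alexa488 anti-GST antibody detected bound protein, and the array was scanned at 488 nm. Binding intensity is taken as the highest Masliner-normalised natural-log median intensity across replicate spots of either probe orientation.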
row,Sequence,gcPBM binding intensity (ln)
1,GTATATAAATATATATATATATATATATCTATATTT [CACACA_negctrl_site871],9.16
2,AAAGAAAAATTAACATGTACAAAAATTACTTGTTCA [XGTACX_site6725],9.21
3,TCTGAAACAAGAAAAAGTACACAAATTACAAAACTA [XGTACX_site7641],9.44
4,AAAAAAAATTCACACTGTACAAAAGCATAAATAAAC [XGTACX_site5408],9.75
5,ATATTTACCTTTGTATGTACATATATAAAATATATC [XGTACX_site6367],9.37
6,TTTTGTAAAAAGAAAAATTAGAATATATCGTATATA [XGTACX_negctrl_site617],8.8
7,TTTTCCATAAGAATTACACACAGAAAGGATAAGTAT [CACACA_site105],9.72
8,AAACAGCATGGTATACCTATAAAATATATATACTAA [GTGCAC_negctrl_site39],9.29
9,CTTATATTAATTATTACACACATATTTATAAATGCA [CACACA_site6501],9.43
10,TATTACATACAATATTGTACATATCATATTTTGAAT [XGTACX_site2191],9.24
11,ACGGAAAAAGAAAAGGTGCATATGGACACAATATAT,9.66
12,ATTATTTGTTTAAATTCACACACGTATATATATTTA [CACACA_site3050],9.6
13,ACATGTAAATGGAAAAGTACTAATAACTTGTATTGG [XGTACX_site5181],9.36
14,ATAGAAATATTATATTGTACGAACAGTTATTAACAA [XGTACX_site2137],9.3
15,TTATTTTAATATAAAATACACACTACTATTATAAAT [CACACA_site1470],9.26
16,TAATTATTAAAACATTGTACATTATTATAAACAATT [XGTACX_site4489],9.04
17,ATATATAAATATATTACACACTTTTTCTTTTTTTTT [CACACA_site7332],9.38
18,TTTTTTTTTTTTTGATGTACATAAATTAAGAATTAT [XGTACX_site7789],8.84
19,AATATATCTTTTTACGGCAACCATATTTTTCCCATT [CACACA_negctrl_site963],9.5
20,TTTTTTTTAGTATGAACACACATATATATTATAAAA [CACACA_site2935],9.14
21,TATTATGTTATATATTGTACATGTTTATTGAAACAA [XGTACX_site5605],9.15
22,TTTATATGTGAAAAAAGTACAAGGAAAAAATTAAAC [XGTACX_site7269],9.55
23,TATTAACAAAATATAGCACACATAAATATATATTTA [CACACA_site8005],9.47
24,ATTATCCATGCATTTACACACACACTAAAAAAAATT [CACACA_site7848],9.92
25,ATGTATATATATTTGTGTACATATTTAGGAAATAAA [XGTACX_site2904],9.18
